According to patent publication US20130252334A1, “METHOD OF USING TET-INDUCIBLE TRANSGENES” (UNIVERSITY OF ROCHESTER, priority 2010, published 2013):

Test system: tet-ON GFP stable cells (HN33)
Conditions: for transgene expression, 6 vs 12-hour pulse exposure: total 48 hours; for GFP transgene activation, pulse dosing vs continuous exposure: 16 hours washout

Structure (SMILES): C[C@H]1c2ccc(C(C)(C)C)c(O)c2C(O)=C2C(=O)[C@]3(O)C(O)=C(C(N)=O)C(=O)[C@@H](N(C)C)[C@@H]3[C@@H](O)[C@@H]21 [9-TB, 9-t-butyl doxycycline]
- transgene expression, 6 vs 12-hour pulse exposure (0.25 μg/ml): clear differences were observed
- GFP transgene activation, pulse dosing vs continuous exposure (2.5 μg/ml, 12 hours pulse): dramatically increased expression levels
- transgene (GFP) expression vs washout period length (2.5 μg/ml, 12 hours pulse, washout 0, 12, 24 hours): Shorter chase periods were associated with lower levels of transgene expression
- transgene expression, 6 vs 12-hour pulse exposure (2.5 μg/ml): equivalent levels of transgene expression
- GFP expression at high dose (10 μg/ml, continuous 40 hours): Lower levels of GFP expression
- transgene induction, continuous dosing 0.25 vs 2.5 μg/ml (48-hours exposure, normoxic): nearly equivalent transgene induction
- GFP expression from the TetO promoter (continuous exposure 40 hours, 0.25-10 μg/ml, matched concentrations, relative to Dox, listed as 9TB): higher levels of GFP expression

Structure (SMILES): CC1c2cccc(O)c2C(=O)C2=C(O)C3(O)C(=O)C(C(N)=O)=C(O)C(N(C)C)C3C(O)C21 (stereo not drawn) [Dox, 4-[Dimethylamino]-1,4,4a,5,5a,6,11,12a-octahydro-3,5,10,12,12apentahydroxy-6-methyl-1,11-dioxo-2-naphthacenecarboxamide]
- GFP transgene activation, pulse dosing vs continuous exposure (2.5 μg/ml, 12 hours pulse): lowered GFP transgene activation
- GFP transgene activation, pulse dosing vs continuous exposure (2.5 μg/ml, 12 hours pulse, listed as doxycycline): did not achieve acceptable transgene expression levels

Read-outs that look alike come from different tables or passages of the source.
